# Test results published in the supplement of paper PMC8728848.
# The other results are listed elsewhere or left out.
# B1: PX9961H-bth-557-24-557 (Bacteroides thetaiotaomicron) (protein)
# chain: EETRTEVEKKNYMNNAEEAKDVLLGVYRTNTLDAMYGYYLSILFNLGTDISQVEGSGNENFRIIPTNSFPTTQSEVQQTWAALYTGIYRANDFLERISNKIGSYTTTDKKLATLYIAEARALRGMFYFELVRRFGNVVLMTSTQMSNQNPATYVQSAPEKVYEYIEDDLLYACDILPYATDDQYRESNDYRFSKGAALGLLTKVYATWAGYPVKDESKWEAAAKTARILVESGKHGLLKDYEQLWKNTCNGTWDPTESLIEISFYSPTVSGNSDPVGRIGKWNGVKTTAIAGVRGSCAANVKVVHTFVLDWREDVSDIRRDLSIANYQYTDTKKSLWVAGASDTDESAAEKDADPTKAQKNKQNYTPAKWDIQKYVTTNSFINNDKSNVNWYFLRYADVLLLYAEALNEWKHGPDAEAYNAINAVRRRGYGNPSNTSACDLPQGLDETSFREAVRKERSYELSFEGHRRQDLIRWGIYYKTVQATAKELGYWWEGTGSPNYSVATYTEEGKHELFPIPQRDMDLCIQFNQNPKW
# Columns and labels:
# Assay in all cases: glycan array binding signal (z-score within array); higher = stronger binding
# Conditions in all cases: glycan notation: IUPAC condensed, linker removed
# [1] = biological target: Fuc(a1-2)[Gal(a1-4)]Gal(b1-4)GlcNAc
# In short: (§1)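 Glycan array data were curated from 3228 arrays in the Consortium for Functional Glycomics database and kept only where the protein sequence was available. Glycan names were converted to IUPAC-condensed notation, and columns mapping to the same glycan were averaged. The binding signal is a within-array Z-score, averaged across arrays of the same protein sequence at different concentrations or buffers and across linkers. Negative Z-scores can be read as non-binding.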
# [2] = biological target: Fuc(a1-2)[GalNAc(a1-3)]Gal
# In short: as §1
# [3] = biological target: Fuc(a1-2)[GalNAc(a1-3)]Gal(b1-3)GalNAc(a1-3)[Fuc(a1-2)]Gal(b1-4)GlcNAc
# In short: as §1
# [4] = biological target: Fuc(a1-2)[GalNAc(a1-3)]Gal(b1-3)GalNAc(b1-3)Gal(a1-4)Gal(b1-4)Glc
# In short: as §1
# [5] = biological target: Fuc(a1-2)[GalNAc(a1-3)]Gal(b1-3)GlcNAc
# In short: as §1
# [6] = biological target: Fuc(a1-2)[GalNAc(a1-3)]Gal(b1-3)GlcNAc(b1-2)Man(a1-3)[Fuc(a1-2)[GalNAc(a1-3)]Gal(b1-3)GlcNAc(b1-2)Man(a1-6)]Man(b1-4)GlcNAc(b1-4)GlcNAc
# In short: as §1
# [7] = biological target: Fuc(a1-2)[GalNAc(a1-3)]Gal(b1-3)GlcNAc(b1-2)Man(a1-3)[Fuc(a1-2)[GalNAc(a1-3)]Gal(b1-3)GlcNAc(b1-2)Man(a1-6)]Man(b1-4)GlcNAc(b1-4)[Fuc(a1-6)]GlcNAc
# In short: as §1
# [8] = biological target: Fuc(a1-2)[GalNAc(a1-3)]Gal(b1-3)GlcNAc(b1-3)GalNAc
# In short: as §1
# [9] = biological target: Fuc(a1-2)[GalNAc(a1-3)]Gal(b1-3)GlcNAc(b1-6)GalNAc
# In short: as §1
# [10] = biological target: Fuc(a1-2)[GalNAc(a1-3)]Gal(b1-4)Glc
# In short: as §1
# [11] = biological target: Fuc(a1-2)[GalNAc(a1-3)]Gal(b1-4)GlcNAc
# In short: as §1
# [12] = biological target: Fuc(a1-2)[GalNAc(a1-3)]Gal(b1-4)GlcNAc(b1-2)Man
# In short: as §1
# [13] = biological target: Fuc(a1-2)[GalNAc(a1-3)]Gal(b1-4)GlcNAc(b1-2)Man(a1-3)[Fuc(a1-2)[GalNAc(a1-3)]Gal(b1-4)GlcNAc(b1-2)Man(a1-6)]Man(b1-4)GlcNAc(b1-4)GlcNAc
# In short: as §1
# [14] = biological target: Fuc(a1-2)[GalNAc(a1-3)]Gal(b1-4)GlcNAc(b1-2)Man(a1-3)[Fuc(a1-2)[GalNAc(a1-3)]Gal(b1-4)GlcNAc(b1-2)Man(a1-6)]Man(b1-4)GlcNAc(b1-4)[Fuc(a1-6)]GlcNAc
# In short: as §1
# [15] = biological target: Fuc(a1-2)[GalNAc(a1-3)]Gal(b1-4)GlcNAc(b1-3)Gal(b1-4)GlcNAc
# In short: as §1
# [16] = biological target: Fuc(a1-2)[GalNAc(a1-3)]Gal(b1-4)GlcNAc(b1-3)Gal(b1-4)GlcNAc(b1-3)Gal(b1-4)GlcNAc
# In short: as §1
# [17] = biological target: Fuc(a1-2)[GalNAc(a1-3)]Gal(b1-4)GlcNAc(b1-3)GalNAc
# In short: as §1
# [18] = biological target: Fuc(a1-2)[GalNAc(a1-3)]Gal(b1-4)GlcNAc(b1-3)[Fuc(a1-2)[GalNAc(a1-3)]Gal(b1-4)GlcNAc(b1-6)]GalNAc
# In short: as §1
# [19] = biological target: Fuc(a1-2)[GalNAc(a1-3)]Gal(b1-4)GlcNAc(b1-6)GalNAc
# In short: as §1
# [20] = biological target: Fuc(a1-2)[GalNAc(a1-3)]Gal(b1-4)[Fuc(a1-3)]GlcNAc
# In short: as §1
# [21] = biological target: Fuc(a1-2)[GalNAc(a1-3)]Gal(b1-4)[Fuc(a1-3)]GlcNAc(b1-3)GalNAc
# In short: as §1
# [22] = biological target: Fuc(a1-2)[GalNAc(a1-4)]Gal(b1-4)GlcNAc
# In short: as §1
# [23] = biological target: Fuc(a1-2)[GalNAc(b1-3)]Gal
# In short: as §1
# Fuc(a1-3)GlcNAc = biological target: Fuc(a1-3)GlcNAc
# In short: as §1
# [24] = biological target: Fuc(a1-3)[Gal(b1-4)]Glc6S
# In short: as §1
# [25] = biological target: Fuc(a1-3)[Gal(b1-4)]GlcNAc
# In short: as §1
# [26] = biological target: Fuc(a1-3)[Gal(b1-4)]GlcNAc(b1-2)Man
# In short: as §1
# [27] = biological target: Fuc(a1-3)[Gal(b1-4)]GlcNAc(b1-2)Man(a1-3)[Fuc(a1-3)[Gal(b1-4)]GlcNAc(b1-2)Man(a1-6)]Man(b1-4)GlcNAc(b1-4)GlcNAc
# In short: as §1
# [28] = biological target: Fuc(a1-3)[Gal(b1-4)]GlcNAc(b1-2)Man(a1-3)[Fuc(a1-3)[Gal(b1-4)]GlcNAc(b1-2)Man(a1-6)]Man(b1-4)GlcNAc(b1-4)[Fuc(a1-6)]GlcNAc
# In short: as §1
# [29] = biological target: Fuc(a1-3)[Gal(b1-4)]GlcNAc(b1-3)Gal(b1-3)[Fuc(a1-4)]GlcNAc
# In short: as §1
# [30] = biological target: Fuc(a1-3)[Gal(b1-4)]GlcNAc(b1-3)Gal(b1-4)[Fuc(a1-3)]GlcNAc
# In short: as §1
# [31] = biological target: Fuc(a1-3)[Gal(b1-4)]GlcNAc(b1-3)Gal(b1-4)[Fuc(a1-3)]GlcNAc(b1-3)Gal(b1-4)[Fuc(a1-3)]GlcNAc
# In short: as §1
# [32] = biological target: Fuc(a1-3)[Gal(b1-4)]GlcNAc(b1-3)GalNAc
# In short: as §1
# [33] = biological target: Fuc(a1-3)[Gal(b1-4)]GlcNAc(b1-6)GalNAc
# In short: as §1
# [34] = biological target: Fuc(a1-3)[Gal(b1-4)]GlcNAc(b1-6)[Gal(b1-3)GlcNAc(b1-3)]Gal(b1-4)Glc
# In short: as §1
# [35] = biological target: Fuc(a1-3)[Gal(b1-4)]GlcNAc6S
# In short: as §1
# [36] = biological target: Fuc(a1-3)[Gal3S(b1-4)]Glc
# In short: as §1
# [37] = biological target: Fuc(a1-3)[Gal3S(b1-4)]GlcNAc
# In short: as §1
binder,measurement,setting,value
B1,glycan array binding signal (z-score),[1],0.377
same,glycan array binding signal (z-score),[2],-0.417
same,glycan array binding signal (z-score),[3],-0.274
same,glycan array binding signal (z-score),[4],-0.41
same,glycan array binding signal (z-score),[5],-0.405
same,glycan array binding signal (z-score),[6],0.927
same,glycan array binding signal (z-score),[7],-0.407
same,glycan array binding signal (z-score),[8],-0.349
same,glycan array binding signal (z-score),[9],0.217
same,glycan array binding signal (z-score),[10],-0.47
same,glycan array binding signal (z-score),[11],-0.488
same,glycan array binding signal (z-score),[12],-0.435
same,glycan array binding signal (z-score),[13],3.08
same,glycan array binding signal (z-score),[14],-0.289
same,glycan array binding signal (z-score),[15],-0.215
same,glycan array binding signal (z-score),[16],-0.119
same,glycan array binding signal (z-score),[17],-0.417
same,glycan array binding signal (z-score),[18],-0.333
same,glycan array binding signal (z-score),[19],1.81
same,glycan array binding signal (z-score),[20],-0.321
same,glycan array binding signal (z-score),[21],2.15
same,glycan array binding signal (z-score),[22],0.042
same,glycan array binding signal (z-score),[23],0.036
same,glycan array binding signal (z-score),Fuc(a1-3)GlcNAc,-0.19
same,glycan array binding signal (z-score),[24],-0.154
same,glycan array binding signal (z-score),[25],-0.342
same,glycan array binding signal (z-score),[26],-0.167
same,glycan array binding signal (z-score),[27],0.247
same,glycan array binding signal (z-score),[28],0.019
same,glycan array binding signal (z-score),[29],-0.482
same,glycan array binding signal (z-score),[30],-0.339
same,glycan array binding signal (z-score),[31],-0.101
same,glycan array binding signal (z-score),[32],-0.032
same,glycan array binding signal (z-score),[33],-0.376
same,glycan array binding signal (z-score),[34],-0.553
same,glycan array binding signal (z-score),[35],0.629
same,glycan array binding signal (z-score),[36],-0.743
same,glycan array binding signal (z-score),[37],-0.246
